PubChem BioAssay AID485344 (National Center for Advancing Translational Sciences (NCATS), 2010)
The whole screen tested about 340,000 compounds, of which about 6,900 (2%) were called active. Cut-off read from the data, not from the text of the source: active = inhibition above about 30%; inactive = below that, where a call was filed. The list shows a part of the results, in another mix than the full data. Where no call is shown, the source filed none.

Biological target: D(2) dopamine receptor (Homo sapiens) (UniProt P14416)
Sequence of UniProt P14416 (P14416 whole entry, looked up): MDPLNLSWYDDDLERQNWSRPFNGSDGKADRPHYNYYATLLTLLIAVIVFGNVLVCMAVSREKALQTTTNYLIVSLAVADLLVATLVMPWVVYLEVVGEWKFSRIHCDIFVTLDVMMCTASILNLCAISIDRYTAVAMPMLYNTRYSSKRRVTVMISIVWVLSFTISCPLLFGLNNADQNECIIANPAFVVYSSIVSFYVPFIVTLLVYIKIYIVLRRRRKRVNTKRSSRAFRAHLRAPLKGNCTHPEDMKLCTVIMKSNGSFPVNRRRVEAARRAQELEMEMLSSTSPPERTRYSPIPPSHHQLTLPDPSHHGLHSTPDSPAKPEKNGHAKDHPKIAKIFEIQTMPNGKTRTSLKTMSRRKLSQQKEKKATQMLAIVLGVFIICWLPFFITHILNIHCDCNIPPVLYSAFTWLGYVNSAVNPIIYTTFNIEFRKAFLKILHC
Experiment: HTS Assay for Allosteric Antagonists of the Human D2 Dopamine Receptor: Primary Screen for Antagonists; note: 0% is about no effect
Conditions: HEK293 TREx D2 cells, calcium flux, dopamine EC80; at 10 µM; stronger effect = higher value
In short: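 Tetracycline-induced HEK293 T-REx cells expressing D2 force-coupled to calcium signalling were dye-loaded, exposed to compound for 180 s, then challenged with an EC80 of dopamine; calcium flux was followed kinetically for a further 180 s.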

With `Cc1ccc(CCNC(=O)CCSCc2ccccc2Cl)cc1` as the compound, how does the inhibition read?
The inhibition was 5.72%.

For `CCCn1c2ccccc2c2cnn(CC(=O)NC(CCSC)C(=O)OC)c(=O)c21` (configuration not stated), which inhibition is on record?
The inhibition was 8.7%.

With `Cc1c(C(=O)NCCN(C)C)sc2nc3n(c(=O)c12)CCC3` as the compound, how does the inhibition read?
The inhibition was -17.6%.

Which inhibition does the source give for `CCOC(=O)c1nnc2c(-c3ccc(Cl)cc3)c(C)nn2c1C` here?
The inhibition was -14.2%.

Which inhibition does the source give for `Cc1ccc2c(c1)-c1c(cnn1CC(=O)Nc1ccccc1C#N)CO2` here?
The inhibition was 25.8%.

`Cc1ccc(OC(=O)CSc2nnc(CNC(=O)c3ccccc3)o2)cc1` was tested. Which inhibition did it give?
Its inhibition is -21.1%.

How did the inhibition turn out when `CC(=O)N1CCCc2cc(S(=O)(=O)N3CCCC(C(=O)N4CCN(c5cc(C)ccc5C)CC4)C3)ccc21` (configuration not stated) was run?
Its inhibition is 6.49%.

How did the inhibition turn out when `Cc1ccc(C(=O)COC(=O)CCC(=O)Nc2ccc(Oc3cc(C)ccc3C(C)C)cc2)cc1` was run?
Its inhibition is -3.99%.

For `CCc1ccc(C2=NN(CCC(=O)NCCc3ccc(Cl)cc3)C(=O)CC2)cc1`, which inhibition is on record?
The inhibition was 18.8%.

`Cc1cc(Br)ccc1NC(=O)C1CCN(S(=O)(=O)c2ccc(Br)s2)CC1` was tested. Which inhibition did it give?
Its inhibition is 4.88%.

`CCOC(=O)c1ccc(N2C(=O)c3n[nH]c(-c4cccs4)c3C2c2ccc(Cl)cc2Cl)cc1` (configuration not stated) was tested. Which inhibition did it give?
The inhibition was 21.4%.

`COc1ccc(/C=C(/C#N)c2nc(-c3ccc(Br)cc3)cs2)cc1` was tested. Which inhibition did it give?
The inhibition was 5.89%.

For `CCOc1ccc(NC(=O)CCS(=O)(=O)c2ccc(Br)cc2)cc1`, which inhibition is on record?
The inhibition was -16.8%.

`COc1ccc(NC(=O)c2c(C)oc3ccc(O)c(CN4CCN(Cc5ccccc5)CC4)c23)cc1` was tested. Which inhibition did it give?
The inhibition was 9.54%.

For `Cc1cccc(Cn2c(SCc3ccc(C(=O)NC4CCCCC4)cc3)nc3ccncc32)c1`, which inhibition is on record?
The inhibition was -14.9%.

`CCc1ccc(NC(=O)C(=O)NNC(=O)c2ccc(OC)cc2)cc1` was tested. Which inhibition did it give?
The inhibition was active: 43%.

How did the inhibition turn out when `COc1cc(NC(=O)c2c(C)oc3ncnc(N4CCCCC4)c23)cc(OC)c1` was run?
The inhibition was 1.62%.

`Cc1ccc2c(c1)c(=O)c1ccccc1n2CCCC(=O)Nc1c(F)cccc1F` was tested. Which inhibition did it give?
Its inhibition is 3.58%.

With `Cc1ccc(/C=C/c2onc(C)c2S(=O)(=O)N2CCC(C(=O)N3CCCCC3)CC2)cc1` as the compound, how does the inhibition read?
The inhibition was active: 34.1%.

How did the inhibition turn out when `CN(Cc1ccccc1)C(=O)c1cn(C)c2ccc(S(=O)(=O)N(C)C3CCCCC3)cc2c1=O` was run?
Its inhibition is -2.46%.

How did the inhibition turn out when `COc1cc(NC(=O)c2ccc(NC(=O)N3CCSc4ncccc43)cc2)cc(OC)c1` was run?
Its inhibition is 5.58%.

For `COc1ccc(CCNC(=O)c2ccc(CNS(=O)(=O)c3ccccc3)cc2)cc1OC`, which inhibition is on record?
Its inhibition is 7.96%.

For `Cc1cccc(CCNC(=O)C2CCCN(S(=O)(=O)c3ccc4c(c3)oc(=O)n4C)C2)c1` (configuration not stated), which inhibition is on record?
The inhibition was 0.986%.

Which inhibition does the source give for `CC(C)(C)OC(=O)N1CCC(c2c(C(=O)N3CCN(C(=O)c4ccco4)CC3)cnn2-c2ccccc2)CC1` here?
The inhibition was -0.371%.

With `CCOc1cccc2sc(N(CCN(CC)CC)C(=O)c3ccco3)nc12` as the compound, how does the inhibition read?
Its inhibition is 26%.

Which inhibition does the source give for `CCC1CN(C(=O)Nc2ccc(C(=O)O)cc2)c2cc(Cl)ccc2O1` (configuration not stated) here?
The inhibition was -0.302%.

Which inhibition does the source give for `Cc1ccc2nc(Cl)c3cc(C(=O)NC4CCCCCC4)sc3c2c1` here?
The inhibition was -13.9%.

Which inhibition does the source give for `O=C(CSc1cn(CC(=O)N2CCCC2)c2ccccc12)Nc1cc(C(F)(F)F)ccc1Cl` here?
The inhibition was -19.8%.

Which inhibition does the source give for `O=C(c1ccc(CS(=O)c2ccccc2Cl)o1)N1CCN(c2cccc(Cl)c2)CC1` (configuration not stated) here?
The inhibition was -0.658%.

`COc1ccc(C(CNC(=O)c2cccc(N(C)C)c2)N2CCCC2)cc1` (configuration not stated) was tested. Which inhibition did it give?
Its inhibition is active: 46.6%.

For `CC(CNC(=O)CCCn1c(=O)c2cccn2c2cccnc21)c1ccccc1` (configuration not stated), which inhibition is on record?
The inhibition was 4.35%.

How did the inhibition turn out when `CC1(C)CC(=O)CC2(C1)NCC(c1ccccc1)c1c2[nH]c2ccccc12` (configuration not stated) was run?
The inhibition was active: 31.4%.

Which inhibition does the source give for `COc1cccc(CNC(=O)c2ccc(NC(=O)N3CC(C)Sc4ccccc43)cc2)c1` (configuration not stated) here?
Its inhibition is 14.9%.

Which inhibition does the source give for `Cc1ccccc1Nc1c(-c2ccncc2)nc2ccc(Cl)cn12` here?
The inhibition was 3.91%.

`CCc1nn2c(=O)c(S(=O)(=O)Nc3cccc(F)c3)c(C)nc2s1` was tested. Which inhibition did it give?
Its inhibition is 17.5%.

`CCC(Sc1nc2nccnc2c(=O)n1Cc1ccc(C)cc1)C(=O)NC1CCCCC1` (configuration not stated) was tested. Which inhibition did it give?
The inhibition was -5.17%.

How did the inhibition turn out when `CCOc1ccc(S(=O)(=O)Nc2ccc(-c3ccc(OC)nn3)cc2)cc1` was run?
Its inhibition is -13.7%.

Which inhibition does the source give for `Cc1cccc(-n2c(SCC(=O)c3ccccc3)nnc2-c2ccc(Br)cc2)c1` here?
Its inhibition is 1.89%.

With `Cc1ccc(Cl)cc1NS(=O)(=O)c1cc2c3c(c1)CC(=O)N3CCC2` as the compound, how does the inhibition read?
Its inhibition is 10.8%.

With `Cc1c2cnn(-c3ccccc3)c(=O)c2c(C)n1CC(=O)NCc1ccccc1` as the compound, how does the inhibition read?
The inhibition was 14.8%.

Which inhibition does the source give for `COc1cc2c(c(OC)c1)C(c1cc(OC)c(OC)c(OC)c1)CC(=O)N2` (configuration not stated) here?
Its inhibition is 5.78%.

With `CCCNC(=O)N1CCN(S(=O)(=O)c2ccc3c(ccn3C)c2)CC1` as the compound, how does the inhibition read?
Its inhibition is -21.8%.

How did the inhibition turn out when `C=CC(COCc1ccccc1)N(C(=O)OC(C)(C)C)S(=O)(=O)c1ccccc1Br` (configuration not stated) was run?
The inhibition was active: 68%.

For `Cc1ccc(CNC(=O)Cn2c(=O)n(-c3cccc(Cl)c3)c(=O)c3sc4ccccc4c32)cc1`, which inhibition is on record?
Its inhibition is 0.774%.

`COc1ccccc1N1CCN(C(=O)c2cc3ccc4ccc(C)[nH]c4c3n2)CC1` was tested. Which inhibition did it give?
Its inhibition is 18.9%.

With `CCOC(=O)C1CCCN(S(=O)(=O)c2csc(C(N)=O)c2)C1` (configuration not stated) as the compound, how does the inhibition read?
Its inhibition is 28.2%.

For `COc1c2ccc(C(=O)NCc3cc(C(F)(F)F)cc(C(F)(F)F)c3)cc2nn1C`, which inhibition is on record?
Its inhibition is active: 40.8%.
